# About 14,000 (4.5%) of roughly 310,000 compounds showed an effect of 50% or more. Effects have a minus sign here. This is one part of the list.
# Molecular target: human ether-à-go-go-related gene (hERG) potassium channel (human, UniProt Q12809)
# Test: primary screen, population patch clamp on CHO cells stably expressing hERG
# 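Further: peak tail current of the secondary pulse compared with the same well before compound.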
# Chain of human ether-à-go-go-related gene (hERG) potassium channel (Q12809 whole entry, looked up): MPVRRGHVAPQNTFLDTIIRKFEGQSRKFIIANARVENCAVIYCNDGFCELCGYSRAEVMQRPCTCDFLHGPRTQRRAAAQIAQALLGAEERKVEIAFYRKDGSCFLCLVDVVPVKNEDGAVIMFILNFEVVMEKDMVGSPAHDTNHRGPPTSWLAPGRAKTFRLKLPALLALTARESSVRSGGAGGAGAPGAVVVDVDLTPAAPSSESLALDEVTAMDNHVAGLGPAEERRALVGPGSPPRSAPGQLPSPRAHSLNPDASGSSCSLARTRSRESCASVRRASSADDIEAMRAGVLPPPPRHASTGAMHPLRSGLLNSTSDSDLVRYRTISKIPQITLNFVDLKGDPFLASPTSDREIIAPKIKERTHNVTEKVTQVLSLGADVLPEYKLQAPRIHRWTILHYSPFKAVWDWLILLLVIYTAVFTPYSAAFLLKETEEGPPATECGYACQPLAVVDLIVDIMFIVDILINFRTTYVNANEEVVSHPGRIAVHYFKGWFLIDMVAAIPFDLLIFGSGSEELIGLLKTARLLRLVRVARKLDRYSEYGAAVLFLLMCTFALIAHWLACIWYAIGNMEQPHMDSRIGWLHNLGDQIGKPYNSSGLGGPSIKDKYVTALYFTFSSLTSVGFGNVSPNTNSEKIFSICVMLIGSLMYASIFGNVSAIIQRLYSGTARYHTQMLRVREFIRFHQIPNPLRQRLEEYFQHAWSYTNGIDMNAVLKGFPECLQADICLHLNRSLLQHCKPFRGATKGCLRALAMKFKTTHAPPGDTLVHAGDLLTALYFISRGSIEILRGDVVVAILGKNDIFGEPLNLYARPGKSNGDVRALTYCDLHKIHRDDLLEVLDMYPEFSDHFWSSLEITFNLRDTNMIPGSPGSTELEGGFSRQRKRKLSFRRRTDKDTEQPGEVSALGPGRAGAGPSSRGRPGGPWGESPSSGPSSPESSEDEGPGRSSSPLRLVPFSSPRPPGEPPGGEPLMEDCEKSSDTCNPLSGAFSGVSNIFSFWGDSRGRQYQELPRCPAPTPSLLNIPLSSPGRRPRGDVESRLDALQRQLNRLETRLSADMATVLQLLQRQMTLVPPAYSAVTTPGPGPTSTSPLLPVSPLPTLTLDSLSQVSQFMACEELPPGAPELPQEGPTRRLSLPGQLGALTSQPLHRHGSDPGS
row,SMILES,"hERG current change (%, negative = inhibition) at 10uM [%]"
1,CCOC(=O)CN(c1cccc(C(C)=O)c1)S(C)(=O)=O,0.84
2,CC(C)C(=O)Nc1ccc(N2CCCC2)c(Cl)c1,35
3,CCOC(=O)c1c(NCC(C)C)c2ccccc2[nH]c1=O,-1.01
4,CC(OC(=O)c1cc2c(s1)CCCCC2)C(=O)NC(N)=O (centres unmarked),-32
5,CCn1c(CSc2ncccn2)nnc1SCC(=O)N1c2ccccc2CC1C (centres unmarked),5.84
6,CCCCCCCC1=CC2=CC(=O)C(C)(OC(C)=O)C(=O)C2=CN1CCc1ccccc1 (centres unmarked),-62.3
7,CC1CCCC(C)N1CC(O)COc1ccc(Cl)cc1 (centres unmarked),-65
8,Cc1ccc(SCCSc2nc(N)cc(=O)[nH]2)cc1,14
9,Cc1nn(C)c(C)c1S(=O)(=O)N1CCC(C(=O)NC(C)c2ccccc2)CC1 (centres unmarked),8.56
10,CCOC(=O)c1sc(=S)n(CC)c1NC(=O)CC,16.2
11,COC(=O)c1cc(C(=O)Nc2nnc(CC(C)C)s2)cc([N+](=O)[O-])c1,-1.01
12,CC(C)c1cc(C(=O)Nc2cccc(C(F)(F)F)c2)no1,7.55
13,CCOc1ccccc1NC(=O)NC(C)c1ccncc1 (centres unmarked),11.5
14,Cc1nn(Cc2ccc([N+](=O)[O-])cc2)c(=O)n1-c1ccc(Cl)cc1,-42.9
15,Cc1cc(C)c(O)c(-c2cc(C(=O)Nc3c(C)n(C)n(-c4ccccc4)c3=O)[nH]n2)c1,-18.3
16,CSc1ccc(S(=O)(=O)N2CCC(C(=O)NC3CC3)CC2)cc1,-7.17
17,COCCNc1oc(Cc2cccc3ccccc23)nc1C#N,5.01
18,COc1cc(NC(=O)C2CC(c3c(F)cccc3Cl)=NO2)cc(OC)c1OC (centres unmarked),-17.8
19,Brc1ccc2c(c1)[C@H]1OCC[C@H]1[C@@H](c1cccs1)N2,-3.18
20,Cc1ccc(-c2nnc(SCC(=O)NNC(=O)COc3cccc4ccccc34)n2C)cc1,5.74
21,CCC(=O)Nc1ccc(Nc2nc(C)c([N+](=O)[O-])c(Nc3ccc(NC(=O)CC)cc3)n2)cc1,7.72
22,CC1=C(C(=O)OC(C)(C)C)C(c2ccco2)C(C#N)=C(N)O1 (centres unmarked),17.3
23,COc1cc(C(C)=O)ccc1OCc1cc(C(=O)N(C)CCC2CCCCO2)no1 (centres unmarked),6.35

row,SMILES,"hERG current change (%, negative = inhibition) at 10uM [%]"
1,O=C(COC(=O)c1ccccc1C(=O)c1ccc(Cl)c([N+](=O)[O-])c1)NC1CCCCCC1,16
2,COc1ccc(-c2[nH]nc3c2C(c2ccsc2)C(C#N)=C(N)O3)cc1 (centres unmarked),16.6
3,COc1ccc(OCC(=O)Nc2c3c(nn2C(C)(C)C)CS(=O)(=O)C3)cc1,-5.24
4,O=[N+]([O-])c1cccc(C2(O)COc3ccccc3O2)c1 (centres unmarked),9.17
5,CCOc1ccc(OCC)c(S(=O)(=O)NC2CC(C)(C)NC(C)(C)C2)c1,15.2
6,Cc1sc2nc(CSCC(=O)NC3(C#N)CCCCC3)[nH]c(=O)c2c1C,16.2
7,CCOc1ccc(C(CC(=O)O)NC(=O)C23CC4CC(CC(C4)C2)C3)cc1OC (centres unmarked),30.2
8,CCOC(=O)CNC1CC(=O)N(c2ccc(Br)cc2)C1=O (centres unmarked),19.4
9,COc1ccccc1-c1cc(C(=O)N2CCCC2)no1,-8.67
10,CC(C)(C)OC(=O)NCC(=O)Oc1cc2oc(=O)cc(-c3ccccc3)c2cc1Cl,2.95
11,Cc1ccc(C)c(NC(=O)CN2C(=O)NC(C)(c3ccc4c(c3)OCCO4)C2=O)c1 (centres unmarked),3.21
12,COc1cc2c(N3CCOCC3)cc(O)c(CC(=O)Nc3ccccc3)c2cc1OC,18.8
13,Cc1ccc(OCc2cc(C(=O)N(C)CC3CCOCC3)no2)cc1C,-13.1
14,O=C(CN1C(=O)CCC1=O)Nc1ccc(Br)cc1,-2.74
15,COc1cc(CNc2ncn[nH]2)ccc1OCc1ccccc1C,3.38
16,Cc1nc2ccc(NC(=O)c3cccc(C(F)(F)F)c3)cc2o1,-13.1
17,Cc1cc(S(=O)(=O)N2CCN(c3ccccc3F)CC2)ccc1-n1cnnn1,-23.8
18,Cc1[nH]c(=O)c(C#N)c(C)c1Cl,1.64
19,CCn1cc(Br)c(C(=O)Nc2ccc(Cl)cc2Cl)n1,7.24
20,Cc1ccc(/C=C/C(=O)O)cc1S(=O)(=O)N1CCc2ccccc2C1,6.57
21,Cc1ccccc1N=C(NOCc1ccccc1)c1nonc1N,-11.9
22,COc1cccc(CNC(=O)c2nnn(CC(=O)Nc3c(C)cccc3C)c2N)c1,19
23,O=C(Cc1ccc(Cl)cc1)NCCCn1ccnc1,3.14

row,SMILES,"hERG current change (%, negative = inhibition) at 10uM [%]"
1,CCN(C(=O)c1ccc(Cl)c([N+](=O)[O-])c1)c1ccccc1,-5.95
2,COc1cc(/C=N/NC(=O)c2ccccc2Cl)ccc1Oc1ccc([N+](=O)[O-])cn1,-31.5
3,O=C(Nc1nnc(CC2=CCCCC2)s1)c1cccs1,13.9
4,CCCCS(=O)(=O)N1CN(S(=O)(=O)CCCC)C2NC(=O)NC21 (centres unmarked),5.71
5,COc1ccc(-c2cc(N3CCCC3)n3ncnc3n2)cc1,-64.5
6,NS(=O)(=O)c1cccc(NC(=O)CSc2ncc(C(F)(F)F)cc2Cl)c1,-16.2
7,Cc1ccc(N(CC(=O)NC2CCCC2)C(=O)CNC(=O)c2cccs2)cc1F,24.4
8,O=C(CNS(=O)(=O)c1ccc(Br)cc1)NC1CCCC1,9.17
9,Cl.O=c1cc(CN2CCNCC2)nc2sccn12,-0.707
10,CCOC(=O)c1c(NC(=O)C(C)Sc2cn(C)c3ccccc23)sc2c1CCC2 (centres unmarked),18
11,N#C/C(=C\c1cccn1-c1ccccc1)C(=O)NC1CCCCC1,-13.6
12,CCOC(=O)c1cnc2c(-c3ccccc3)c(C)nn2c1N,-0.771
13,Cn1c(=O)c2c(SCC(=O)N3CCCCC3)nc(-c3ccccc3F)nc2n(C)c1=O,21.5
14,Cc1ccc2nc(N3CC(C)OC(C)C3)nc(-c3ccccc3)c2c1 (centres unmarked),5.88
15,Cc1c(-n2c(SC(C)C(=O)NC(N)=O)nc3ccccc3c2=O)c(=O)n(-c2ccccc2)n1C (centres unmarked),1.61
16,CCc1nn(C(C)C(=O)NC2CCCCCC2)c(=O)c2cc3occc3n12 (centres unmarked),-11.1
17,CCN(CC(=O)Nc1ccc(NC(C)=O)cc1)C(=O)CCCOc1cccc(C)c1,1.96
18,O=C(NCCn1ccc2ccccc21)c1ccc(S(=O)(=O)N2CCCCC2)cc1,-17
19,Cc1cc2cc(CNC(=O)NC3CCCCC3)ccc2n1C,-1.79
20,O=C(/C=C/c1ccc(F)cc1)NC(=S)N1CCOCC1,19.5
21,O=C(/C=C/c1ccccc1[N+](=O)[O-])NCc1cccnc1,-6.56
22,c1ccc(CSCc2nc3ccccc3[nH]2)cc1,-1.93
23,COc1cc(C(=O)N2CCN(C(=O)c3cc(-c4ccccc4)n[nH]3)CC2)cc(OC)c1OC,-77.6

row,SMILES,"hERG current change (%, negative = inhibition) at 10uM [%]"
1,Cc1c(-c2cccs2)[n+](=O)c2c(n1[O-])CCCCC2,9.48
2,Cc1c(CC(=O)O)c(=O)oc2c(C)c(OCc3ccccc3)ccc12,17.7
3,CCn1c2ccccc2c2cc(/C=N/NC(=O)c3ccccc3)ccc21,6.86
4,Nc1cc(=O)[nH]c(=O)n1-c1cccc(F)c1,18.4
5,COc1cc2c(cc1NC(=O)C(C)N1CCN(S(=O)(=O)c3ccccc3[N+](=O)[O-])CC1)oc1ccccc12 (centres unmarked),-7.93
6,O=C(CN1CCCN(S(=O)(=O)c2ccc(F)cc2)CC1)Nc1ccccc1Br,-49.1
7,CCc1c(C)nc(N)nc1N1N=C1SC,0.299
8,CC(=O)NCCCNS(=O)(=O)c1ccc(C)cc1,10.2
9,CC(OC(=O)c1ccc([N+](=O)[O-])s1)C(=O)Nc1ncc(Cl)cc1Cl (centres unmarked),-4.69
10,COCCNC(=O)C(c1ccc(O)cc1)N(Cc1ccccc1)C(=O)CCC(=O)Nc1ccccn1 (centres unmarked),-17.9
11,COc1ccc(NC(=O)c2ccc3c(c2)NC(=O)CO3)cc1OC,16.5
12,COc1ccc(CNC(=O)c2ccc(Br)cc2)cc1,-3.83
13,Cc1ccc(NC(=S)N2CCN(c3nccc(C(F)(F)F)n3)CC2)c(C)c1,-10.3
14,CCCc1nc2cc(Cl)c([N+](=O)[O-])cc2o1,2.82
15,NC(=O)COC(=O)/C=C/c1ccc2ccccc2n1,19
16,CCN(CC)CCN=Cc1c(O)n(C2CCCCCC2)c(=O)[nH]c1=O,-32.7
17,O=C(Cc1ccccc1)Oc1ccc(N2C(=O)C3CCCCC3C2=O)cc1 (centres unmarked),-6.37
18,Clc1ccc(/C=N/Nc2ncnc3ccccc23)cc1Cl,-1.08
19,Cc1ccc(Cl)c(OCC(=O)Nc2ccc3c(c2)OCCO3)c1,17.1
20,O=C(c1nn(-c2ccccc2)c(=O)c2ccccc12)N1CCN(c2ccccn2)CC1,-16.5

# — paper PMC4336329 (PLoS ONE, 2015)
